# Laboratory results as given in PubChem BioAssay (NCATS).
# Where “and” joins values, the source holds several entries; their conditions need not be identical. Identical values can stand only once. This list was built around the results that the source calls inconclusive (neither active nor inactive); the mix of calls is not that of the screen. Potencies beside an inconclusive call are fits to weak or partial responses and may not hold up. Calls of active or inactive are those of the source. Calls follow the shape of the dose curve; as a rule, active = well fitted curve in the direction sought with a large enough effect; inconclusive = small, poorly fitted or top-dose-only effect, or another doubt; inactive = no such curve, though single readings can be large; an effect the other way counts as inactive or inconclusive.
# What was measured:
# [1] = Viability qHTS for spleen associated tyrosine kinase inhibitor (SYKi) naive MV4-11 cells (AID 1963823); conditions: MV4-11 AML viability, CellTiter-Glo luminescence, 72 h; viability (% of control): at 45 µM (top of the series); also: nearly all actives have a fitted effect of over 40% in size
# How it was run: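 Seeding of 500 SYKi-naive MV4-11 cells per well onto pre-dispensed compounds preceded a 72 hr incubation at 37 C. Luminescent CellTiter-Glo signal, read after 10 min at room temperature, reflected viable cells.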
# [2] = Viability qHTS for spleen associated tyrosine kinase inhibitor (SYKi) drug resistant MV4-11 cells (AID 1963824); also: nearly all actives have a fitted effect of over 35% in size
# How it was run: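 SYK inhibitor-resistant MV4-11 AML cells, 500 per well, added to predispensed compounds and incubated 72 hr at 37 C, 5% CO2. Viability measured by CellTiter-Glo luminescence after 10 min at room temperature.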
# [3] = Cellular viability qHTS for adrenocortical cancer (ACC) cell line SW-13 (AID 1963989); conditions: SW-13 ACC cells viability, CellTiter-Glo, 48 h; activity (max response): hits give low values; also: nearly all actives have a fitted effect of over 65% in size;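 as to activity (max response): cells grown in serum-free medium with ITS supplement; % is scaled to controls: 0 for no effect and ±100 for the full control effect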
# How it was run: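 Luminescent ATP read-out (CellTiter-Glo, 20 min at room temperature) measured metabolically competent SW-13 cells after 48 h compound treatment. Final concentrations spanned up to 46 uM; bortezomib served as positive control.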
# [4] = Cellular viability qHTS for adrenocortical cancer (ACC) cell line NCI-H295R (AID 1963990); conditions: CellTiter-Glo ATP luminescence, 48 h; activity change, negative = viability loss: at 46.1 µM (top of the series); also: nearly all actives have a fitted effect of over 60% in size;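 as to activity change, negative = viability loss: 0% = DMSO only wells and -100% = full killing with cytotoxic reference compound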
# How it was run: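 IC50 and maximal efficacy derive from four-parameter logistic modelling of titration curves, with reads scaled between DMSO-only wells (0%) and doxorubicin hydrochloride (100% inhibition). Compounds spanned up to 46 uM over 48 h.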
# Potency is read from the fitted curve at half-maximal effect; tags tell the direction and shape of the fitted curve.
SMILES,Potency [1],Potency [2],Potency [3],Potency [4],activity (max response) [3]
Cc1ncc(Cl)cc1NCc1ccc(C(=O)NC(CC2CCCC2)C(=O)NC2CC2)s1 (stereo not drawn),active: 20.6 µM,active: 18.6 µM,"inconclusive: 31.6 µM [cytotoxic, single point]","inconclusive: 35.5 µM [cytotoxic, single point]",
CS(=O)(=O)Nc1cc2occ(NC=O)c(=O)c2cc1Oc1ccccc1,"inconclusive: 14.8 µM [cytotoxic, partial curve, poor fit]",inactive,"inconclusive: 35.5 µM [cytotoxic, partial curve, poor fit]",inactive,
O=C(Cn1ccnc1[N+](=O)[O-])NCc1ccccc1,inactive,"inconclusive: 15 µM [cytotoxic, partial curve, poor fit]",,"inconclusive: 9.2 µM [cytotoxic, partial curve, poor fit]",inactive: -1.05%
c1ccc(-c2nc[nH]c2-c2ccccc2)cc1,"inconclusive: 21.1 µM [cytotoxic, single point]","inconclusive: 16.8 µM [cytotoxic, single point]",,inactive,inactive: -22.8%
O=C(COc1ccc(Cl)cc1)N1CCN(Cc2ccc3c(c2)OCO3)CC1,"inconclusive: 18.8 µM [cytotoxic, single point]","inconclusive: 29.9 µM [cytotoxic, single point]","inconclusive: 25.9 µM [cytotoxic, single point]","inconclusive: 23.1 µM [cytotoxic, single point]",
CN(C)CCC=C1c2ccccc2CCc2ccccc21,"inconclusive: 21.1 µM [cytotoxic, single point]","inconclusive: 33.5 µM [cytotoxic, single point]","inconclusive: 20.6 µM [cytotoxic, single point]","inconclusive: 29.1 µM [cytotoxic, single point]",
C/C(=C(/OCCOc1ccc(Cl)cc1)c1ccc(Cl)cc1Cl)n1ccnc1,"inconclusive: 15 µM [cytotoxic, partial curve]","inconclusive: 23.7 µM [cytotoxic, partial curve]","inconclusive: 18.4 µM [cytotoxic, single point]","inconclusive: 25.9 µM [cytotoxic, single point]",
COc1cc(C(=O)NC2CCCNC2)cc(OC)c1OC (stereo not drawn),inactive,inactive,,inactive,inactive: 8.49%
CC(C)C[C@H](NC(=O)CNC(=O)[C@H](Cc1ccc(O)cc1)NC(=O)[C@H](CO)NC(=O)[C@H](Cc1c[nH]c2ccccc12)NC(=O)[C@H](Cc1cnc[nH]1)NC(=O)[C@@H]1CCC(=O)N1)C(=O)N[C@@H](CCCN=C(N)N)C(=O)N1CCC[C@H]1C(=O)NCC(N)=O (stereo in doubt),"inconclusive: 33.5 µM [cytotoxic, single point]","inconclusive: 18.8 µM [cytotoxic, single point]","inconclusive: 29.1 µM [cytotoxic, single point]","inconclusive: 32.6 µM [cytotoxic, single point]",
CC(=O)SC[C@@H](Cc1ccccc1)C(=O)NCC(=O)OCc1ccccc1,inactive,"inconclusive: 23.7 µM [cytotoxic, single point]","inconclusive: 20.6 µM [cytotoxic, single point]","inconclusive: 29.1 µM [cytotoxic, single point]",
O=S1(=O)c2cccc3cccc(c23)N1CCCN1CCN(c2ccc(F)cc2)CC1,"inconclusive: 29.9 µM [cytotoxic, single point]","inconclusive: 33.5 µM [cytotoxic, single point]","inconclusive: 18.4 µM [cytotoxic, single point]","inconclusive: 18.4 µM [cytotoxic, partial curve, poor fit]",
COc1ccc2c(c1OC)C(=O)O[C@@H]2[C@H]1c2c(cc3c(c2OC)OCO3)CCN1C,"inconclusive: 18.8 µM [cytotoxic, partial curve, poor fit]","inconclusive: 29.9 µM [cytotoxic, single point]","inconclusive: 23.1 µM [cytotoxic, partial curve, poor fit]","inconclusive: 29.1 µM [cytotoxic, single point]",
Cc1nc([C@](C)(O)CO)sc1-c1cnc(N)c(O[C@H](C)c2cc(F)ccc2-n2nccn2)c1,"inconclusive: 5.17 µM [cytotoxic, partial curve]",active: 8.33 µM,"inconclusive: 17.8 µM [cytotoxic, partial curve]",active: 2.82 µM,
CCCCc1cc2ccccc2c(OCCN(C)C)n1,"inconclusive: 13.3 µM [cytotoxic, partial curve, poor fit]","inconclusive: 29.9 µM [cytotoxic, single point]","inconclusive: 23.1 µM [cytotoxic, single point]","inconclusive: 25.9 µM [cytotoxic, single point]",
Nc1nccc(-c2c(-c3ccc(F)cc3)ncn2C2CCN(Cc3ccon3)CC2)n1,"inconclusive: 13.2 µM [cytotoxic, partial curve, poor fit]","inconclusive: 16.6 µM [cytotoxic, partial curve]","inconclusive: 35.5 µM [cytotoxic, partial curve, poor fit]","inconclusive: 25.1 µM [cytotoxic, partial curve, poor fit]",
CCOc1ccc2nc3cc(N)ccc3c(N)c2c1,"inconclusive: 5.96 µM [cytotoxic, partial curve, poor fit]","inconclusive: 33.5 µM [cytotoxic, single point]","inconclusive: 2.31 µM [cytotoxic, partial curve]","inconclusive: 2.59 µM [cytotoxic, partial curve]",
OCCN1CCN(CCCN2c3ccccc3C=Cc3ccccc32)CC1,"inconclusive: 10.6 µM [cytotoxic, partial curve, poor fit]","inconclusive: 21.1 µM [cytotoxic, single point]","inconclusive: 23.1 µM [cytotoxic, partial curve, poor fit]",inactive,
CCc1cnn2c(NCc3ccc[n+]([O-])c3)cc(N3CCCC[C@H]3CCO)nc12,"inconclusive: 0.0093 µM [cytotoxic, full curve]","inconclusive: 0.0093 µM [cytotoxic, full curve]",active: 0.0355 µM,"inconclusive: 8.91 µM [cytotoxic, single point]",
CCN1C(=O)N2Cc3cc(OC)cc(OC)c3[C@@H](C)C=C2C12CCN(Cc1cc(C)cc(C)c1)CC2,active: 18.6 µM,active: 14.8 µM,active: 28.2 µM,active: 25.1 µM,
O=C(O)c1ccccc1OP(=O)(O)O,inactive,inactive,,inactive,inactive: 16.4%
O=C(NO)c1cnc(NC2(c3cccc(F)c3)CCCCC2)nc1,"inconclusive: 13.2 µM [cytotoxic, partial curve]","inconclusive: 13.2 µM [cytotoxic, partial curve]","inconclusive: 35.5 µM [cytotoxic, single point]",active: 3.16 µM,
Cc1cnc(-c2ccccc2C(C)C)nc1NCc1ccc(-n2ccnn2)cc1,"inconclusive: 20.6 µM [cytotoxic, partial curve] and inconclusive: 11.8 µM [cytotoxic, partial curve]",active: 16.4 µM and active: 14.8 µM,"inconclusive: 31.6 µM [cytotoxic, single point]","inconclusive: 20 µM [cytotoxic, partial curve, poor fit]",
CCCN(CCc1cccs1)[C@H]1CCc2c(O)cccc2C1,"inconclusive: 13.3 µM [cytotoxic, partial curve]","inconclusive: 23.7 µM [cytotoxic, single point]","inconclusive: 18.4 µM [cytotoxic, single point]","inconclusive: 29.1 µM [cytotoxic, single point]",
C[C@@H]1CCN(C(=O)N2CCCC2)C[C@@H]1N(C)c1ncnc2[nH]ccc12,"inconclusive: 8.2 µM [cytotoxic, partial curve]","inconclusive: 9.2 µM [cytotoxic, partial curve]",,inactive,inactive: 11.2%
CC(Nc1ncnc2nc[nH]c12)c1cc2cccc(Cl)c2c(=O)n1-c1ccccc1 (stereo not drawn),"inconclusive: 9.34 µM [cytotoxic, partial curve]",active: 2.59 µM,,"inconclusive: 11.2 µM [cytotoxic, partial curve, poor fit]",inactive: -2.7%
N#Cc1ccc(-c2c(-c3ncn[nH]3)sc(N3CCOCC3)c2C#N)c(F)c1,active: 3.26 µM and active: 3.32 µM,active: 2.06 µM and active: 5.9 µM,"inconclusive: 14.1 µM [cytotoxic, partial curve]",active: 4.47 µM,
CCCCN1CCCC1C(=O)Nc1c(C)cc(C)cc1C (stereo not drawn),"inconclusive: 10.6 µM [cytotoxic, partial curve]","inconclusive: 11.9 µM [cytotoxic, partial curve]","inconclusive: 18.4 µM [cytotoxic, single point]","inconclusive: 29.1 µM [cytotoxic, single point]",
